In all, about 310,000 compounds went through this assay and about 14,000 (4.5%) showed an effect of 50% or more. The effect is printed as a negative number. The list shows a part of the results.
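Also: peak tail current of the secondary pulse compared with the same well before compound.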

The target in this assay is human ether-à-go-go-related gene (hERG) potassium channel (human, UniProt Q12809). As to the kind of experiment: primary screen, population patch clamp on CHO cells stably expressing hERG.
Sequence of human ether-à-go-go-related gene (hERG) potassium channel (Q12809 whole entry, looked up): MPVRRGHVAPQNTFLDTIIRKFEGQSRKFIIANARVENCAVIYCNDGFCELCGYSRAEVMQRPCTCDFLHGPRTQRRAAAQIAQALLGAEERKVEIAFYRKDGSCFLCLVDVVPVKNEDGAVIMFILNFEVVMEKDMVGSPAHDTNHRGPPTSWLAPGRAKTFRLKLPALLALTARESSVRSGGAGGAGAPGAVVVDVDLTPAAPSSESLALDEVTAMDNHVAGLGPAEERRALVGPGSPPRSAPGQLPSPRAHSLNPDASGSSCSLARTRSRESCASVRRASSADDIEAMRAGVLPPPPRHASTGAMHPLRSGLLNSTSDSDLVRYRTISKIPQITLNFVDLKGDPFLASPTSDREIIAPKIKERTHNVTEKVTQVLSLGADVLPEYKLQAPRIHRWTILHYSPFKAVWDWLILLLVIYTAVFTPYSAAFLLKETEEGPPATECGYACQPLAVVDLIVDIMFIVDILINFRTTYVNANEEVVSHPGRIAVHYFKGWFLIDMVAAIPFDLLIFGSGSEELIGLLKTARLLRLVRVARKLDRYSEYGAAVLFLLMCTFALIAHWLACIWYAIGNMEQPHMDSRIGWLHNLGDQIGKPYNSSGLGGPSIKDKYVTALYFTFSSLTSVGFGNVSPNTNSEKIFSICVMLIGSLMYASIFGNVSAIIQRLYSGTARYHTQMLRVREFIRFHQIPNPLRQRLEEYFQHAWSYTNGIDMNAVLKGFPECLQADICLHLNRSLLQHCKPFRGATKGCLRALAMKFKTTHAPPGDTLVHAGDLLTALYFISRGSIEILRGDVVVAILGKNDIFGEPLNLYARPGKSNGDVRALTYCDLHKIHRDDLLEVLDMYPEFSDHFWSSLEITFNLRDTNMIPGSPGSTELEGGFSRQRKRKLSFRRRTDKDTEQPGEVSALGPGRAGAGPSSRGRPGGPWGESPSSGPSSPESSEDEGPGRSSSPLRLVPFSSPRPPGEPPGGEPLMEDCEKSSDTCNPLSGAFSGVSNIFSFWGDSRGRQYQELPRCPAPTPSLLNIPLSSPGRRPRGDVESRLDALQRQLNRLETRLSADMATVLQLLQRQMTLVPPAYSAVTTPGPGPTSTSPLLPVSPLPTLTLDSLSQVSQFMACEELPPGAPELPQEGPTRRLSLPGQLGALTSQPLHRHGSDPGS
On to `Cc1csc2nc(O)c(C(=O)NCCCc3ccccc3)c(=O)n12`, for which the “hERG current change (%, negative = inhibition) at 10uM” value is recorded as -20%.

As to `Cc1cc(C)c(S(=O)(=O)Nc2ccccc2C(=O)OCC(=O)NCc2ccccc2)c(C)c1`, the “hERG current change (%, negative = inhibition) at 10uM” value is listed as -0.075%.

For `CCOC(=O)C1(CCCc2ccccc2)CCN(C(=O)c2cnn(CC)c2)CC1`, the “hERG current change (%, negative = inhibition) at 10uM” value is recorded as -64.2%.

Regarding `CCC(Sc1nc2cc(OC)c(OC)cc2c(=O)n1CCc1ccc(S(N)(=O)=O)cc1)C(=O)NCCOC` (centres unmarked), the “hERG current change (%, negative = inhibition) at 10uM” value is on record as -34.8%.

Take `COc1ccc(/C=N\NC(=O)c2ccc(-c3ccccc3)cc2)c(OC)c1OC`: the “hERG current change (%, negative = inhibition) at 10uM” value is 11.5%.

For `CC(C)CC1NC(=O)N(CC(=O)N2CCCc3ccccc32)C1=O` (centres unmarked), the “hERG current change (%, negative = inhibition) at 10uM” value is on record as -1.52%.

As to `CC(Oc1ccc(Br)cc1)C(=O)NCC(c1cccs1)N1CCOCC1` (centres unmarked), the “hERG current change (%, negative = inhibition) at 10uM” value is -24.9%.

On to `COC(=O)CC(CP(=O)([O-])CN(C)C=O)C(=O)OC` (centres unmarked), for which the “hERG current change (%, negative = inhibition) at 10uM” value turned out to be 11%.

In the case of `COc1cccc(OCCSc2nnc3sc4ccccc4n23)c1`, the “hERG current change (%, negative = inhibition) at 10uM” value is listed as -21.1%.

Take `O=C(NC(=S)N(CCO)Cc1ccccc1)c1ccc(F)cc1Cl`: the “hERG current change (%, negative = inhibition) at 10uM” value amounted to 4.31%.

In the case of `O=C1/C(=C/c2ccccn2)SC(=S)N1c1cccc(O)c1`, the “hERG current change (%, negative = inhibition) at 10uM” value amounted to 3.17%.

Consider `CCOc1ccc(CSC(CC(=O)O)C(=O)O)cc1` (centres unmarked), for which the “hERG current change (%, negative = inhibition) at 10uM” value came to 9.05%.

Consider `Cc1noc(C)c1C(=O)N1CC(C)OC(C)C1` (centres unmarked), for which the “hERG current change (%, negative = inhibition) at 10uM” value was -0.435%.

Take `Cc1ccccc1/C=C/C1=NCCN1.O=C(O)C(=O)O`: the “hERG current change (%, negative = inhibition) at 10uM” value is recorded as -2.49%.

With `CCNC(=S)Nc1cc(-c2ccc(Cl)cc2)[nH]n1`, the “hERG current change (%, negative = inhibition) at 10uM” value is 23.2%.

For the compound `CCOC(=O)c1cccc(S(=O)(=O)N(CCO)Cc2cc3cc(OC)c(OC)cc3[nH]c2=O)c1`, the “hERG current change (%, negative = inhibition) at 10uM” value is given as -9.89%.

`COC(=O)c1ccc(-c2ccc(Cl)cc2)nc1C`: the “hERG current change (%, negative = inhibition) at 10uM” value is 16.4%.

As for `COc1cc(NC(=O)NCc2ccncc2)cc(OC)c1OC`, the “hERG current change (%, negative = inhibition) at 10uM” value was -0.152%.

`C/C(=N/NC(=O)c1cc(-c2cccc([N+](=O)[O-])c2)n[nH]1)c1ccc(Cl)cc1`: the “hERG current change (%, negative = inhibition) at 10uM” value turned out to be 6.73%.

In the case of `COc1ccc(CC(C)NCCc2ccc(OC)c(OC)c2)cc1` (centres unmarked), the “hERG current change (%, negative = inhibition) at 10uM” value was -60.3%.

Take `O=c1c2ccccc2nc2n1CCCN2`: the “hERG current change (%, negative = inhibition) at 10uM” value came out at 10.9%.

For the compound `O=C(CSC(=S)N1CCSCC1)c1ccc(Cl)cc1`, the “hERG current change (%, negative = inhibition) at 10uM” value is 13.9%.

Turning to `Nc1nnc(C(=O)c2ccccc2N)s1`, the “hERG current change (%, negative = inhibition) at 10uM” value worked out at 6.24%.

As for `CC(=O)Nc1ccc(NC(=O)C(C)OC(=O)C2(c3ccc(Cl)cc3)CCCC2)cc1` (centres unmarked), the “hERG current change (%, negative = inhibition) at 10uM” value was 7.38%.

For `CCC(C)c1ccc(OCC(=O)O)cc1` (centres unmarked), the “hERG current change (%, negative = inhibition) at 10uM” value was 11.5%.

`O=C1CC(C(=O)Nc2ncccn2)C(c2ccccc2)O1` (centres unmarked): the “hERG current change (%, negative = inhibition) at 10uM” value was 5.09%.

As to `Cc1ccc2c(c1)N(CCC(=O)NC1CCCCC1C)C(=O)CO2` (centres unmarked), the “hERG current change (%, negative = inhibition) at 10uM” value was determined as 25.9%.

Turning to `CCC(=O)c1ccc(OCC(O)CN2CCCCC2)cc1.Cl` (centres unmarked), the “hERG current change (%, negative = inhibition) at 10uM” value is recorded as -21.8%.

For `CCOC(=O)N1CCC(NS(=O)(=O)c2cc(Br)cc3c2N(C(=O)CC)CC3)CC1`, the “hERG current change (%, negative = inhibition) at 10uM” value is given as 3.15%.

In the case of `CCOC(=O)CSC1=C(C#N)C(C)C2=C(CCCC2=O)N1` (centres unmarked), the “hERG current change (%, negative = inhibition) at 10uM” value is recorded as -7.84%.

With `COc1ccc(S(=O)(=O)N2CCC(=O)N2)cc1`, the “hERG current change (%, negative = inhibition) at 10uM” value came out at 3.18%.

For the compound `CC(C)(C)NC[C@H](O)COc1nsnc1N1CCOCC1.O=C(O)/C=C\C(=O)O`, the “hERG current change (%, negative = inhibition) at 10uM” value turned out to be 7.2%.

For `Cc1c(C(=O)N2CCOCC2)[nH]c2c1C(=O)CC(c1ccc(Cl)cc1)C2` (centres unmarked), the “hERG current change (%, negative = inhibition) at 10uM” value is -45.5%.

Regarding `COc1cc2c(cc1OC)C(c1ccccc1)N(C(=O)CSCC(=O)O)CC2` (centres unmarked), the “hERG current change (%, negative = inhibition) at 10uM” value was 28.5%.

Regarding `CC(C)N(Cc1nccn1C)C(=O)c1cc(COc2ccc3ncccc3c2)on1`, the “hERG current change (%, negative = inhibition) at 10uM” value amounted to 9.33%.

With `COc1ccc(C2C(C#N)=C(SCC(=O)Nc3ccc(C)cc3)NC3=C2C(=O)CC(C)(C)C3)cc1` (centres unmarked), the “hERG current change (%, negative = inhibition) at 10uM” value is reported as -2.49%.

Take `Cc1occc1-c1nnc(SCC(=O)Nc2c(F)cccc2F)n1C`: the “hERG current change (%, negative = inhibition) at 10uM” value is reported as -7.23%.

In the case of `COc1ccc(CN(C)CC(=O)Nc2ccc(Cl)cc2F)c(OC)c1.O=C(O)C(=O)O`, the “hERG current change (%, negative = inhibition) at 10uM” value is given as -16.1%.

Consider `COC(=O)c1ccc(CSc2nnc(NC(C)C)s2)cc1`, for which the “hERG current change (%, negative = inhibition) at 10uM” value is -13.9%.

Regarding `COc1ccc(Br)cc1CN(C)CC(=O)Nc1ccccc1Cl`, the “hERG current change (%, negative = inhibition) at 10uM” value is -11.7%.

In the case of `CCC(C(=O)OCC(=O)Nc1ccc(C(N)=O)cc1)c1ccccc1` (centres unmarked), the “hERG current change (%, negative = inhibition) at 10uM” value is recorded as -40.9%.

Consider `Cc1ccccc1-c1nc(CS(=O)CC(=O)NCc2ccccn2)c(C)o1` (centres unmarked), for which the “hERG current change (%, negative = inhibition) at 10uM” value came out at 12.4%.

With `Oc1ccccc1Oc1ncc(Br)c(N2CCOCC2)n1`, the “hERG current change (%, negative = inhibition) at 10uM” value was -35.1%.

Take `O=c1[nH]c(/C=C/c2ccc(Br)cc2)nc2ccccc12`: the “hERG current change (%, negative = inhibition) at 10uM” value came to 9.94%.

Turning to `Cc1c(Br)cc(C(=O)OC2CCN(C)CC2)c(C)c1C`, the “hERG current change (%, negative = inhibition) at 10uM” value is on record as -29.9%.

In the case of `Cc1ccc(S(=O)(=O)CCC(=O)OCC(=O)c2ccc(C)c(C)c2)cc1`, the “hERG current change (%, negative = inhibition) at 10uM” value was determined as 5.47%.

On to `COC(=O)c1ccc(-c2c(-c3ccccc3)ncc3cc(OC)c(OC)cc23)cc1`, for which the “hERG current change (%, negative = inhibition) at 10uM” value was -7.85%.

On to `COC(=O)c1ccc(NC(=O)CCn2c(=O)oc3ccccc32)cc1`, for which the “hERG current change (%, negative = inhibition) at 10uM” value turned out to be 11.6%.

In the case of `C/C(N)=C(/C#N)C(=O)COC(=O)c1oc2ccccc2c1COC(C)C`, the “hERG current change (%, negative = inhibition) at 10uM” value is recorded as 11.3%.

Turning to `O=C(Nc1ccn(-c2ccccc2)n1)c1ccc(S(=O)(=O)N2CCCCCC2)cc1`, the “hERG current change (%, negative = inhibition) at 10uM” value is reported as -15.4%.

As for `O=C(O)c1ccccc1-c1ccccc1C(=O)Nc1cccc2ccccc12`, the “hERG current change (%, negative = inhibition) at 10uM” value came to 26.6%.

With `C#CCOCCOCCOCCNc1nc(N2CCN(C(=O)[C@H](CCCCN)n3cc([C@@H](N)CC(C)C)nn3)CC2)nc(N2CCN(C(=O)[C@H](Cc3ccc(O)cc3)n3cc([C@@H](N)CC(C)C)nn3)CC2)n1.Cl`, the “hERG current change (%, negative = inhibition) at 10uM” value is reported as 7.84%.

Take `O=C(NC1CCCC1)C(c1ccncc1)N(C(=O)c1csnn1)c1ccc(Cl)cc1` (centres unmarked): the “hERG current change (%, negative = inhibition) at 10uM” value is recorded as -10.4%.

For `COc1ccc(OCC(O)CNS(=O)(=O)c2ccc(NC(C)=O)cc2)cc1` (centres unmarked), the “hERG current change (%, negative = inhibition) at 10uM” value is 19.4%.

With `C=CCn1c(SCC(=O)NC2CC2)nnc1-c1ccccn1`, the “hERG current change (%, negative = inhibition) at 10uM” value is recorded as -0.328%.

`Cl.NCCc1nnc(SCc2ccccc2F)o1`: the “hERG current change (%, negative = inhibition) at 10uM” value is 1.82%.

The record behind these values is article PMC4336329 (PLoS ONE, 2015).
